The results in this text go back to PubChem BioAssay AID1508642 (National Center for Advancing Translational Sciences (NCATS), 2021).

Out of some 43,000 compounds screened, about 200 (0.47%) were called active. Not shown: some 12% with an inconclusive outcome. Calls follow the shape of the dose curve; as a rule, active = well fitted cell-killing curve with a large enough effect; inconclusive = small, poorly fitted or top-dose-only effect, or effect the other way; inactive = flat fitted curve, though single readings scatter. This is one part of the list.
% is scaled to controls: 0 for no effect and ±100 for the full control effect.

This test in a line: Cell viability qHTS assay in S16 Pmp22-F2sN cells. Also: nearly all actives have a fitted effect of over 65% in size. As to conditions: S16 Pmp22-F2sN Schwann cells (luciferase reporters placed in the Pmp22 gene) viability, CellTiter-Glo, 24 h; series mostly up to 57.5 µM; activity change, negative = cytotoxicity: at the top concentration. The method, boiled down: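 CellTiter-Glo counter-screen, qHTS, 1536-well. Cells: S16(c9) Pmp22-F2sN, 500-1,000/well in DMEM + 10% FBS. Cpd 23 nL pin transfer, 24 h, 37C/5% CO2. Read: luminescence, CCD imager.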
A general note: qHTS replaces the single test concentration by a dilution series.
Turning to `Cc1ccc(S(=O)(=O)NC2(C(F)(F)F)NC(=O)N(c3ccc(F)cc3)C2=O)cc1` (configuration not stated), the “activity change, negative = cytotoxicity” value is inactive: 4.38%.

Regarding `COC(=O)c1sccc1S(=O)(=O)N(CC(=O)NCc1ccc(C)cc1)c1ccccc1`, the “activity change, negative = cytotoxicity” value is inactive: 15.2%.

With `N#Cc1c[nH]n2c(NC3CCCC3)c(-c3cccc(Br)c3)nc12`, the “activity change, negative = cytotoxicity” value is inactive: -5.53%.

Regarding `CCOC(=O)c1c(C)[nH]c(C)c1S(=O)(=O)N1CCCC(C(=O)Nc2ncccc2C)C1` (configuration not stated), the “activity change, negative = cytotoxicity” value is inactive: 11.6%.

As for `CC(C)CCn1c(=O)c2cccnc2n(CC(=O)Nc2ccccc2)c1=O`, the “activity change, negative = cytotoxicity” value is inactive: 6.62%.

`CCS(=O)(=O)N1CC(=O)N(c2cccc(Cl)c2)C(C)(C(=O)NC2CCCCCC2)C1` (configuration not stated): the “activity change, negative = cytotoxicity” value was inactive: -0.386%.

Take `Cc1oc(-c2ccc(C(=O)NCCC(C)C)cc2)nc1CS(=O)(=O)c1ccccc1`: the “activity change, negative = cytotoxicity” value is inactive: -29.2%.

`COc1ccccc1CCNC(=O)C(=O)NCC(c1ccco1)S(=O)(=O)c1cccs1` (configuration not stated): the “activity change, negative = cytotoxicity” value was inactive: -18.6%.

On to `COc1ccc(C(=O)Nc2ccc(NC(=O)c3cccs3)cc2)cc1OC`, for which the “activity change, negative = cytotoxicity” value was inactive: -2.88%.

Turning to `CN(C)c1ccc(CN(Cc2ccco2)C(=O)COc2ccc(F)cc2)cc1`, the “activity change, negative = cytotoxicity” value is inactive: 4.94%.

With `CC(C)CNC(=O)N1CCN(S(=O)(=O)c2ccc3c(ccn3C)c2)CC1`, the “activity change, negative = cytotoxicity” value is inactive: -0.35%.

On to `COc1ccc(Cn2ccnc2SCC(=O)Nc2ccc3c(c2)OCO3)cc1`, for which the “activity change, negative = cytotoxicity” value is inactive: 1.6%.

For `COc1ccc(-c2cc(C(F)(F)F)n3nc(C(=O)Nc4cc(C(F)(F)F)ccc4Cl)cc3n2)cc1OC`, the “activity change, negative = cytotoxicity” value was inactive: 9.75%.

Regarding `Cc1ccc2oc3c(c(=O)c2c1)C(c1ccccc1F)N(c1ccccn1)C3=O` (configuration not stated), the “activity change, negative = cytotoxicity” value is inactive: -10.6%.

Take `Cc1ccc(C(C(=O)NC2CCCCC2)N(C)Cc2ccccc2)cc1` (configuration not stated): the “activity change, negative = cytotoxicity” value was inactive: -3.57%.

Regarding `CCOC(=O)c1ccccc1NC(=O)Cn1nnc2sc3c(c2c1=O)CCCC3`, the “activity change, negative = cytotoxicity” value was inactive: 1.88%.

As for `Cc1ccc(NC(=O)Cn2c(=O)c(C(F)(F)F)nc3ccccc32)cc1C`, the “activity change, negative = cytotoxicity” value was inactive: -22.9%.

Turning to `CCOC(=O)c1ccccc1Nc1nc2ccc(C)cc2n2nnnc12`, the “activity change, negative = cytotoxicity” value was inactive: 2.33%.

With `Cc1cccc(C)c1NC(=O)c1nc(S(C)(=O)=O)ncc1N(Cc1ccc(C(C)(C)C)cc1)Cc1ccco1`, the “activity change, negative = cytotoxicity” value is inactive: -1.82%.

For `Cn1cc(-c2cc3n(n2)CCC(=O)N3CCCC(=O)NCc2ccc(F)cc2)c2ccccc21`, the “activity change, negative = cytotoxicity” value is inactive: -11.1%.

Take `CCOc1ccc(NC(=O)c2oc3ccccc3c2NC(=O)C2CCCCC2)cc1`: the “activity change, negative = cytotoxicity” value was inactive: 22.8%.

As to `Cc1oc2c(c1C(=O)Nc1ccc(F)c(F)c1)C1=NCCN1C=N2`, the “activity change, negative = cytotoxicity” value was inactive: -20.2%.

For the compound `CCc1cccc(CC)c1NC(=O)CCS(=O)(=O)c1ccc(Br)s1`, the “activity change, negative = cytotoxicity” value is inactive: -3.4%.

`COc1cccc(-c2nnc(SCC(=O)N3CCCCC3)o2)c1`: the “activity change, negative = cytotoxicity” value is inactive: -2.57%.

Consider `CCOC(=O)c1cccc(NC(=O)c2ccc3c(c2)nnn3CC)c1`, for which the “activity change, negative = cytotoxicity” value was inactive: 1.56%.

On to `COc1ccc(CNC(=O)C2CCCN(S(=O)(=O)N(C)c3ccc(F)cc3)C2)cc1OC` (configuration not stated), for which the “activity change, negative = cytotoxicity” value is inactive: -4.5%.

For the compound `O=C(OCc1cc(=O)n2nc(-c3cccs3)sc2n1)c1cccc(Cl)c1`, the “activity change, negative = cytotoxicity” value was inactive: -13%.

For `COc1cccc(CNS(=O)(=O)c2ccc3[nH]c4c(c3c2)CCCCC4)c1`, the “activity change, negative = cytotoxicity” value was inactive: -1.42%.

Turning to `Cc1ccc(C)c(N2CCN(C(=O)c3ccc(-c4nc(COc5ccccc5)c(C)o4)cc3)CC2)c1`, the “activity change, negative = cytotoxicity” value was inactive: 1.26%.

For `CCOc1ccc(NC(=O)c2ccc3[nH]c(C)cc(=O)c3c2)cc1`, the “activity change, negative = cytotoxicity” value was inactive: 5.16%.

Take `COc1ccc2c(CNCCc3ccccc3C)c(C(=O)O)n(Cc3ccccc3C)c2c1`: the “activity change, negative = cytotoxicity” value was inactive: 9.43%.

Turning to `Cc1ccccc1C(=O)Nc1cccc(OCc2cc(=O)n3c4c(sc3n2)CCCC4)c1`, the “activity change, negative = cytotoxicity” value is inactive: -3.9%.

For `Cc1ccc(C)c(CNS(=O)(=O)c2ccc3c(c2)C(C)(C)C(=O)N3C)c1`, the “activity change, negative = cytotoxicity” value was inactive: 0.995%.

Regarding `COc1ccc2c(c1)c1c(c(=O)n(-c3ccc(C)cc3)c(=O)n1CC(=O)c1ccc(Cl)cc1)n2C`, the “activity change, negative = cytotoxicity” value is inactive: 4.41%.

`COc1ccc(NC(=O)Cn2cc(S(=O)(=O)N3CCC(C)CC3)c3ccccc3c2=O)cc1Cl`: the “activity change, negative = cytotoxicity” value is inactive: -2.28%.

For the compound `CC1CCN(S(=O)(=O)c2ccc3c(c2)N(CC(=O)NCCN(C)C)C(=O)CO3)CC1`, the “activity change, negative = cytotoxicity” value was inactive: 12.5%.

As to `COc1ccc(CN(Cc2ccco2)C(=O)COc2ccc(Cl)cc2C)cc1`, the “activity change, negative = cytotoxicity” value is inactive: -4.27%.

Turning to `CCOC(=O)c1c(S(=O)(=O)N2CCCC(C(=O)NCc3ccc(F)cc3)C2)c(C)n(CC)c1C` (configuration not stated), the “activity change, negative = cytotoxicity” value is inactive: -0.38%.

On to `CC(=O)N1CCc2c(sc3c2c(=O)n(-c2cccc(Cl)c2C)c(=O)n3Cc2ccccc2C)C1`, for which the “activity change, negative = cytotoxicity” value was inactive: 4.73%.

On to `Cc1ccc2c(c1)cc1c(=O)n(CC(=O)N(C)c3ccccc3)nc(C)n12`, for which the “activity change, negative = cytotoxicity” value was inactive: 11.6%.

`CCOCCCNC(=O)C1CCCN(c2ncnc3onc(C)c23)C1` (configuration not stated): the “activity change, negative = cytotoxicity” value was inactive: -5.26%.

Take `N#Cc1c(-c2ccccc2)cc(-c2ccccc2)nc1SCC(O)CS(=O)(=O)Cc1ccccc1` (configuration not stated): the “activity change, negative = cytotoxicity” value was inactive: -4.37%.

Regarding `CCOc1ccc(NC(=O)c2cnn(-c3ccccc3)c2-n2cccc2)cc1`, the “activity change, negative = cytotoxicity” value is inactive: 7.42%.

Consider `CCN(CC)C(=O)CSc1nc2c(c(=O)n(C)c(=O)n2C)n1Cc1ccccc1`, for which the “activity change, negative = cytotoxicity” value was inactive: 13.6%.

As for `CNC(=O)C1CCN(C(=O)N2CC(C)Oc3ccc(Cl)cc32)CC1` (configuration not stated), the “activity change, negative = cytotoxicity” value is inactive: 2.37%.

For the compound `O=C(CCS(=O)(=O)c1cc(Br)cc2c1N(C(=O)C1CC1)CC2)N1CCN(c2ccccc2)CC1`, the “activity change, negative = cytotoxicity” value is inactive: -8.68%.

As to `O=C(c1ccc2c(c1)N(Cc1cccc(Cl)c1)C(=O)c1ccccc1S2(=O)=O)N1CCCC1`, the “activity change, negative = cytotoxicity” value is inactive: -9.51%.
